# PubChem BioAssay AID540317 (National Center for Advancing Translational Sciences (NCATS), 2011)
# Values joined by “and” are separate entries in the source; they are usually repeats but may differ in a detail not shown here. Equal values may be shown once. Among all 390,000 compounds or so, about 2,200 (0.56%) were called active. This list was built around the results that the source calls inconclusive (neither active nor inactive); the mix of calls is not that of the screen. The call rests on the fitted dose curve; in most records, active means well fitted inhibition curve with a large enough effect; inconclusive means small, poorly fitted or top-dose-only effect; inactive means no such curve, though single readings can be large or run the other way. Where the call is inconclusive, the potency comes from a doubtful curve fit.
# Biological target: Chromobox protein homolog 1 (Homo sapiens) (UniProt P83916)
# UniProt P83916, sequence (P83916 whole entry, looked up): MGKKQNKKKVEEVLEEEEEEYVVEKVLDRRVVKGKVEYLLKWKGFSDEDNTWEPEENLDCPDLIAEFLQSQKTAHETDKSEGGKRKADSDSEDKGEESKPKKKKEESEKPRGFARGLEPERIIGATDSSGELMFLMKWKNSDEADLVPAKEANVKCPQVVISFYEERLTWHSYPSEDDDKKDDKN
# Test: HTS for Inhibitors of HP1-beta Chromodomain Interactions with Methylated Histone Tails; further: nearly all actives have a fitted effect of over 70% in size
# Conditions: AlphaScreen HP1-beta / biotin-H3K9me3 peptide binding; series mostly up to 114 µM
# Procedure, shortened: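 HP1-beta protein (50 nM final) preincubated 30 min at room temperature with biotinylated H3(1-18)K9me3 peptide (50 nM) in PBS pH 7.4, 0.01% Tween-20, then compound added for 30 min. AlphaScreen streptavidin donor/nickel chelate acceptor beads (10 ug/mL final), 30 min dark, luminescence read.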
# Potency means the concentration at half of the fitted maximal effect; tags describe the fitted curve by direction and shape.
row,SMILES,Potency
1,CC(C)(C)OC(=O)N1CCC(C(=O)Nc2ccc(C(=O)NCCc3ccccc3)cc2)CC1,inactive
2,COc1ccc(NC(=O)CN2CCN(c3ccc(F)cc3)CC2)cc1Cl,inactive
3,COCCCN1CC23C=CC(O2)C(C(=O)O)C3C1=O (centres undefined),"inconclusive: 35.5 µM [inhibitor, single point]"
4,CCN(Cc1ccccc1)c1ccc(/C=N/N=C(N)N)cc1,"inconclusive: 20 µM [inhibitor, partial curve, poor fit]"
5,O=C(CNCc1ccccc1Cl)Nc1ccc(C(=O)N2CCCCC2)cc1,"inconclusive: 28.2 µM [inhibitor, single point]"
6,COc1cc(OC)cc(C(=O)N2CCN(C3CCC(C)CC3)CC2)c1 (centres undefined),"inconclusive: 17.8 µM [inhibitor, partial curve, poor fit]"
7,O=C(N/N=C\c1cccnc1)c1cc(-c2ccc(Cl)s2)[nH]n1,inactive
8,CC1C[N+](=C2C=C(N3CCOCC3)CC(C)(C)C2)CC(C)O1 (centres undefined),active: 25.1 µM
9,N#Cc1c(NC(=O)c2ccc([N+](=O)[O-])o2)sc2c1CCC2,"inconclusive: 56.2 µM [inhibitor, single point]"
10,Cc1cccc(NC(=O)/C(C#N)=C/c2ccc(C)o2)c1,inactive
11,O=c1cc(OCc2ccccc2)cc[nH]1,active: 8.91 µM
12,O=C(NCCCO)C(=O)Nc1cc2c3c(c1)CCC(=O)N3CCC2,inactive
13,COc1ccc(Br)cc1CN1CCN(Cc2c[nH]c3ccccc23)CC1,"inconclusive: 50.1 µM [inhibitor, partial curve, poor fit]"
14,Cc1cc(C)n(C(=O)Cc2cn3ccsc3n2)n1,"inconclusive: 28.2 µM [inhibitor, single point]"
15,CCSc1nc2c([nH]1)c(=O)n(C)c(=S)n2C,"inconclusive: 28.2 µM [inhibitor, single point]"
16,O=C(CSCc1ccc(F)cc1)Nc1ccc(N2CCOCC2)cc1N1CCOCC1,inactive
17,CCOC(=O)C1CCCCN1Cc1ccc(F)cc1 (centres undefined),"inconclusive: 50.1 µM [inhibitor, partial curve]"
18,CCOc1ccc(NC(=O)CN2C(=O)COc3ccc(S(=O)(=O)N4CCCCC4)cc32)cc1,inactive
19,C/C=C/c1ccc(OCC(O)CN2CCCCCCC2)c(OC)c1 (centres undefined),"inconclusive: 56.2 µM [inhibitor, partial curve, poor fit]"
20,S=C(c1ccc(-c2ccc(Br)cc2)o1)N1CCOCC1,active: 25.1 µM
21,Cc1ccc2[nH]c(=O)c(CN(Cc3ccco3)Cc3nnnn3Cc3ccco3)cc2c1,inactive
22,CS(=O)(=O)c1ccc(C(=O)Nc2nc(-c3ccco3)c(-c3ccco3)s2)cc1,active: 39.8 µM
23,COc1ccc(N2CCN(Cc3nnnn3C3CCCCC3)CC2)cc1,"inconclusive: 89.1 µM [inhibitor, partial curve, poor fit]"

row,SMILES,Potency
1,Cc1ccc(-n2c(C)cc(C(=O)OCC(=O)N3CCOCC3)c2C)cc1,"inconclusive: 79.4 µM [inhibitor, single point]"
2,Cc1ccc(NS(=O)(=O)c2ccc(-c3cc(C)no3)cc2)c(Br)c1,inactive
3,O=C(COC(=O)c1ccccc1Nc1cccc(C(F)(F)F)c1)NCc1ccco1,"inconclusive: 50.1 µM [inhibitor, partial curve]"
4,O=C(CSc1nc2ccccc2s1)Nc1ccc(Cl)c(C(=O)O)c1,"inconclusive: 50.1 µM [inhibitor, partial curve, poor fit]"
5,Cc1ccc(NC(=O)c2c(NC(=O)C(F)(F)F)sc3c2CCCCC3)cc1,"inconclusive: 14.1 µM [inhibitor, full curve, poor fit]"
6,CCOC(=O)c1c(N)sc(C(O)(C(F)(F)F)C(F)(F)F)c1-c1ccccc1,"inconclusive: 39.8 µM [inhibitor, single point]"
7,COc1ccc(C(=O)N2CCN(Cc3ccc(OC)c(OC)c3)CC2)cc1,"inconclusive: 22.4 µM [inhibitor, full curve]"
8,C=CC(=O)Nc1cccc(Oc2ccnc(Nc3ccc(N4CCN(C)CC4)cc3)n2)c1,"inconclusive: 39.8 µM [inhibitor, partial curve]"
9,C=CCn1c(-c2ccoc2)n[nH]c1=S,"inconclusive: 79.4 µM [inhibitor, single point]"
10,CSc1ccccc1NC(=O)CN(C)Cc1cccc(Cl)c1,"inconclusive: 39.8 µM [inhibitor, partial curve]"
11,CC(=O)c1ccc(N2CCN(c3ncnc4c3cnn4-c3cc(Cl)ccc3C)CC2)cc1,inactive
12,COc1ccc(CCN2CCCC(CN(C)Cc3cc(Cl)c(O)c(OC)c3)C2)cc1 (centres undefined),inactive
13,Cn1cccc1C(=O)Nc1nc(-c2ccccn2)cs1,"inconclusive: 39.8 µM [inhibitor, single point]"
14,CCOC(=O)c1ccccc1NC(=O)CSc1nc2ccccc2c(=O)n1CCCN1CCOCC1,inactive
15,COC(=O)C1CCN(c2csc3ccc(Cl)cc3c2=O)CC1,inactive
16,Cn1c(N)c(-c2ccccc2)c2ccc([N+](=O)[O-])cc2c1=O,"inconclusive: 70.8 µM [inhibitor, partial curve]"
17,COc1ccccc1NC(=S)N/N=C/c1ccc(O)cc1,"inconclusive: 35.5 µM [inhibitor, single point]"
18,CC(C)(Oc1ccc(Cl)cc1)C(=O)NC1CC1,inactive
19,O=C(CCc1ccc(S(=O)(=O)N2CCOCC2)cc1)N/N=C/c1ccc(O)c(O)c1O,"inconclusive: 2.82 µM [inhibitor, full curve, poor fit]"
20,CC(C)Oc1ccc(CNC(=O)Cn2nc(N3CCN(c4ccccc4)CC3)ccc2=O)cc1,inactive
21,COc1cc(C2CC(=O)Oc3c(C(CCN4CCOCC4)c4ccc(N(C)C)cc4)c(OC)cc(OC)c32)cc(OC)c1OC (centres undefined),"inconclusive: 35.5 µM [inhibitor, partial curve] and inconclusive: 50.1 µM [inhibitor, partial curve, poor fit]"
22,S=c1[nH]cnc2scc(-c3ccc(Cl)cc3)c12,"inconclusive: 5.62 µM [inhibitor, full curve, poor fit]"
23,CCC(C)NCCOCCSc1ccc(Cl)cc1 (centres undefined),"inconclusive: 79.4 µM [inhibitor, single point]"

row,SMILES,Potency
1,Cc1cc(-c2ccccc2)cc(-c2ccccc2)[n+]1C,inactive
2,Cc1cc(C)c(OCCOCCN2CCN(C)CC2)c(Cl)c1,"inconclusive: 25.1 µM [inhibitor, partial curve]"
3,COc1ccc2cc(C(=O)C3CCCN(Cc4cccc(C)n4)C3)ccc2c1 (centres undefined),"inconclusive: 79.4 µM [inhibitor, partial curve, poor fit]"
4,O=C(O)/C=C/c1cn(-c2ccccc2)nc1-c1ccc(-c2ccc([N+](=O)[O-])cc2)o1,"inconclusive: 35.5 µM [inhibitor, full curve]"
5,CC(C)CC(=O)N1CCN(Cc2cccc([N+](=O)[O-])c2)CC1,"inconclusive: 15.8 µM [inhibitor, full curve, poor fit]"
6,CC1=C(c2ccc(C)cc2)S(=O)(=O)N(Cc2ccc(C(=O)Nc3ccc(C)c(F)c3)cc2)C1=O,"inconclusive: 79.4 µM [inhibitor, single point]"
7,O=S(=O)(c1ccc(F)cc1)N1CCN(CC(O)COCC2CCCO2)CC1 (centres undefined),"inconclusive: 28.2 µM [inhibitor, full curve]"
8,Cc1cc2c(cc1C)N(C(=O)CSc1nncn1C)C(C)(C)c1ssc(=S)c1-2,"inconclusive: 44.7 µM [inhibitor, partial curve]"
9,Nc1ccc2c(c1)OC1(CCCC1)O2,inactive
10,COc1cc(/C=C2/SC(=S)NC2=O)ccc1OS(=O)(=O)c1ccc(C)cc1,"inconclusive: 6.31 µM [inhibitor, full curve]"
11,O=C(C1CCCN(Cc2cccnc2)C1)N1CCCCC1 (centres undefined),"inconclusive: 15.8 µM [inhibitor, partial curve, poor fit]"
12,O=C(Nn1c(-c2ccccc2)nc2ccccc2c1=O)c1ccc([N+](=O)[O-])cc1,"inconclusive: 100 µM [inhibitor, partial curve, poor fit]"
13,Cc1ccc(-n2c(O)c(C=NC3CCS(=O)(=O)C3)c3ccccc3c2=O)cc1C (centres undefined),inactive
14,COc1ccc(CNc2ccc3c(c2)ncn3-c2ccccc2OC)cc1,"inconclusive: 20 µM [inhibitor, full curve]"
15,CCOc1ccc(OCCOCCN2CCc3ccccc3C2)cc1,"inconclusive: 25.1 µM [inhibitor, partial curve, poor fit]"
16,CCC(=O)OC1(C)C(=O)C=C2C=C(c3ccsc3)OC=C2C1=O (centres undefined),"inconclusive: 31.6 µM [inhibitor, full curve]"
17,COc1ccc(C)cc1COC(=O)c1[nH]c(C)c(C(C)=O)c1C,inactive
18,Cc1ccc(/C=C/C(=O)NCCc2c[nH]c3ccccc23)o1,"inconclusive: 70.8 µM [inhibitor, partial curve]"
19,COc1ccc(O)c(C(=O)c2cc(C(=O)NCCc3ccccc3)c(=O)n(CCc3ccccc3)c2)c1,"inconclusive: 3.16 µM [inhibitor, partial curve, poor fit]"
20,O=C(CNC(=O)C1CC(=O)N(c2cccc3ccccc23)C1)Nc1ccccc1Br (centres undefined),inactive
21,Cc1ccc(S(=O)(=O)N2Cc3ccccc3CC2C(=O)Nc2ccc3c(c2)OCO3)cc1 (centres undefined),"inconclusive: 50.1 µM [inhibitor, partial curve]"
22,Cc1ccccc1/C=C(\C#N)c1nc(-c2ccc(Cl)cc2)cs1,inactive
23,COc1ccc(C2C(C#N)=C(N)N(N(C)C)C3=C2C(=O)CC(C)(C)C3)cc1OC (centres undefined),inactive
